According to PMC4336329 (PLoS ONE, 2015):
Screen size: about 310,000 compounds; about 14,000 (4.5%) showed an effect of 50% or more. Effects have a minus sign here. Some of the results follow.

Target: human ether-à-go-go-related gene (hERG) potassium channel (human, UniProt Q12809)
Assay: primary screen, population patch clamp on CHO cells stably expressing hERG
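Also: peak tail current of the secondary pulse compared with the same well before compound.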

Sequence of human ether-à-go-go-related gene (hERG) potassium channel (Q12809 whole entry, looked up): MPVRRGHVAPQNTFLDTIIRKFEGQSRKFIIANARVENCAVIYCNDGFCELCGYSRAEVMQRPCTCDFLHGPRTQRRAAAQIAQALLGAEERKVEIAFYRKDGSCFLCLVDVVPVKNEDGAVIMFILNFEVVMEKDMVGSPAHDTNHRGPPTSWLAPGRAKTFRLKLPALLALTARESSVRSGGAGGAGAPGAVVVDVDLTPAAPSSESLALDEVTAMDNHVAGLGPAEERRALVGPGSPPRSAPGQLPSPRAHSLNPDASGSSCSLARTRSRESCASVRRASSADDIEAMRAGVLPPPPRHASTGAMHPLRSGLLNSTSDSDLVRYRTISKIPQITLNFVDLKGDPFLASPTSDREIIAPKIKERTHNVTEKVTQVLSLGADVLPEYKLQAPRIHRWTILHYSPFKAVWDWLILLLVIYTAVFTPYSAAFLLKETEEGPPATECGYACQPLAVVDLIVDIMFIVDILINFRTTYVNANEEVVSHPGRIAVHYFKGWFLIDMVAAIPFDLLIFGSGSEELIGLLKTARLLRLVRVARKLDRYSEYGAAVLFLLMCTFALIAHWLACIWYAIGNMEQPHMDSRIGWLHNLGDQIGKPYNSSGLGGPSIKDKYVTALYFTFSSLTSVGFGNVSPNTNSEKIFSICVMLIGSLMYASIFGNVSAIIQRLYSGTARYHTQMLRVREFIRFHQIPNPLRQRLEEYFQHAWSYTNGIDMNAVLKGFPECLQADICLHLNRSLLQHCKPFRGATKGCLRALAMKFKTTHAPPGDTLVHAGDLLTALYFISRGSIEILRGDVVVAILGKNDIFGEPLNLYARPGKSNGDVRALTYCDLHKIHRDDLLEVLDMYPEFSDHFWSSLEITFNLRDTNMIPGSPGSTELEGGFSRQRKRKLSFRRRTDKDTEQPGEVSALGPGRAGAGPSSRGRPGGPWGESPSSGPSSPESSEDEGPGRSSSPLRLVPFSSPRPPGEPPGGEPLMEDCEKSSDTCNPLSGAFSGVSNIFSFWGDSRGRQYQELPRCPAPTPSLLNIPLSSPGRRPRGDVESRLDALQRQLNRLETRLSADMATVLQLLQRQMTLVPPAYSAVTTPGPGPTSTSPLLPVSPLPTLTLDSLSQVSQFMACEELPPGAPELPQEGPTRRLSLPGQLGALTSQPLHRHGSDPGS

First: CC(NS(=O)(=O)c1ccc(OCC(=O)N2CCOCC2)c(Cl)c1)c1ccccc1 (centres unmarked)
Second: CC(NS(=O)(=O)c1ccc2c(c1)OCCO2)c1ccccc1 (centres unmarked)
The “hERG current change (%, negative = inhibition) at 10uM” value of the first is lower: -0.661% for the first, 8.19% for the second.

Compared with O=S(=O)(c1cccs1)N1CCN(c2ccnc3cc(Cl)ccc23)CC1, CCOc1ccccc1N1CCN(C2=C(NS(=O)(=O)c3cccs3)C(=O)c3ccccc3C2=O)CC1 is higher in “hERG current change (%, negative = inhibition) at 10uM” value: -68.4% for the first, -14.1% for the second.

First: COc1ccc(OCCCC(=O)NNC(=O)c2ccncc2)cc1
Second: COc1ccc(N(C(=O)c2cccnc2)S(=O)(=O)c2cccs2)cc1
The “hERG current change (%, negative = inhibition) at 10uM” value of the first is higher: 2.97% for the first, -12.3% for the second.

First: CN(Cc1ccccc1)C(=O)C1CCN(S(=O)(=O)c2cccc3nonc23)CC1
Second: NC(=O)C1CCN(C(=O)CN(c2ccc3c(c2)OCCO3)S(=O)(=O)c2ccccc2)CC1
The “hERG current change (%, negative = inhibition) at 10uM” value of the first is lower: -18.8% for the first, -18% for the second.

Compared with COc1ccc2c(c1)C(=O)/C(=C/C=C/c1ccccc1)CC2, COc1cccc(NC(=O)CCc2ccccc2)c1 is lower in “hERG current change (%, negative = inhibition) at 10uM” value: 20.4% for the first, -12% for the second.

First: CCN(CC(=O)Nc1cc(Cl)ccc1C)C(=O)c1cc(S(=O)(=O)N2CCCCCC2)ccc1OC
Second: Cc1ccc2cc(CN(CCN3CCCC3)C(=O)Nc3ccc(F)cc3)c(=O)[nH]c2c1C
The “hERG current change (%, negative = inhibition) at 10uM” value of the first is higher: -14.7% for the first, -70.7% for the second.

First: COc1cc(C(=O)O/N=C2\C=CC(=O)C=C2C)cc(OC)c1OC
Second: COc1cc(C(c2nnnn2C2CCCC2)N2CCN(C)CC2)cc(OC)c1OC.Cl (centres unmarked)
The “hERG current change (%, negative = inhibition) at 10uM” value of the first is lower: -1.85% for the first, 13.9% for the second.

Going from Cc1ccc(N2CC(C(=O)Nc3ccccc3N3CCCC3)CC2=O)cc1 (centres unmarked) to CCC(=O)N1CCN(c2ccc(NC(=O)c3cc4ccccc4o3)cc2)CC1, the “hERG current change (%, negative = inhibition) at 10uM” value falls from -3.38% to -23.3%.

Compared with O=[N+]([O-])c1cc(S(=O)(=O)NCCN2CCOCC2)ccc1Sc1nnnn1-c1ccccc1, O=C(O)C(=O)O.O=[N+]([O-])c1ccc(S(=O)(=O)N2CCN(C3CCN(Cc4ccccc4)CC3)CC2)cc1 is lower in “hERG current change (%, negative = inhibition) at 10uM” value: -24.6% for the first, -78.2% for the second.

Going from COc1ccc(OC)c(NC(=O)C(CCS(C)(=O)=O)NC(C)=O)c1 (centres unmarked) to Cc1cc(C)cc(C(=O)NCC(=O)OCC(=O)Nc2cccnc2Cl)c1, the “hERG current change (%, negative = inhibition) at 10uM” value falls from 10.4% to -42.6%.

Compared with CC(=O)CSc1nnc(-c2ccncc2)n1C, CC(=O)CSc1nnc2cc(C)c3ccccc3n12 is lower in “hERG current change (%, negative = inhibition) at 10uM” value: 29.9% for the first, 23% for the second.

Compared with Cc1ccc(-c2csc(NC(=O)Cc3ccc(F)cc3)n2)o1, CCOC(=O)Cc1ccc(NC(=O)c2ccccc2Br)cc1 is lower in “hERG current change (%, negative = inhibition) at 10uM” value: 23.6% for the first, -7.9% for the second.

Compared with COc1ccc(-c2oc3ccccc3c(=O)c2OC(=O)c2ccc(C)cc2)cc1, COc1ccccc1C(=O)N(Cc1ccccc1)c1ccc(C)cc1 is lower in “hERG current change (%, negative = inhibition) at 10uM” value: 14.1% for the first, -2.96% for the second.

First: COc1ccc(-c2cc(C#N)nc(N3CCN(c4ccccc4)CC3)n2)cc1
Second: CCn1c(SCC(=O)N2CCN(c3ccccc3)CC2)nnc1-c1c[nH]c2ccccc12
The “hERG current change (%, negative = inhibition) at 10uM” value of the first is higher: 3.41% for the first, -53.6% for the second.

Going from CCOC(=O)Cn1nc(C)n(-c2cccc(Cl)c2)c1=O to Cc1nn(CC(=O)NCC(C)c2ccccc2)c(=O)c2cccn12 (centres unmarked), the “hERG current change (%, negative = inhibition) at 10uM” value rises from 12.8% to 13.4%.

First: CC1CN(C(=O)c2cccc(S(=O)(=O)Nc3ccccc3Cl)c2)CC(C)O1 (centres unmarked)
Second: CC1CN(S(=O)(=O)c2cccc(C(=O)NCc3ccc4c(c3)OCO4)c2)CC(C)O1 (centres unmarked)
The “hERG current change (%, negative = inhibition) at 10uM” value of the first is higher: 19.5% for the first, -25.2% for the second.

Going from COCc1cc(=O)[nH]c(SC)n1 to COCc1nnc(NC(=O)c2cccs2)s1, the “hERG current change (%, negative = inhibition) at 10uM” value rises from 7.44% to 18.2%.

First: CCOc1cccc(/C=N/Nc2ccc(S(=O)(=O)N(CC)CC)cn2)c1O
Second: CN(c1ccccc1)S(=O)(=O)c1ccc(NC(=O)c2ccccc2)cc1
The “hERG current change (%, negative = inhibition) at 10uM” value of the first is higher: 6.79% for the first, -12.8% for the second.

Going from CC(=O)NC(=S)NNC(=O)c1ccc(Br)cc1 to CCC(C)NC(=O)c1ccc(NC(=O)C2=C(C)OCCS2)cc1 (centres unmarked), the “hERG current change (%, negative = inhibition) at 10uM” value rises from 15.4% to 23.4%.

Compared with CN(C)c1ccccc1C(=O)N1CCCC(Nc2ccc(F)cc2)C1 (centres unmarked), O=C(O)C(=O)O.c1ccc(-n2cccc2CNC2CCCCC2)cc1 is higher in “hERG current change (%, negative = inhibition) at 10uM” value: -23.7% for the first, -8.93% for the second.

First: CC(C)c1ccc(C(CC(=O)O)N2Cc3ccccc3C2=O)cc1 (centres unmarked)
Second: Cc1cc(Br)ccc1SCC(=O)OCC(=O)Nc1ccccc1C#N
The “hERG current change (%, negative = inhibition) at 10uM” value of the first is lower: 7.11% for the first, 13.1% for the second.

Going from N#C/C(=C\c1cn(-c2ccccc2)nc1-c1ccccc1)S(=O)(=O)c1ccccc1 to O=C(c1ccc(Cn2c(=O)[nH]c3ccccc3c2=O)cc1)N1CCN(c2ccccc2)CC1, the “hERG current change (%, negative = inhibition) at 10uM” value rises from 4.99% to 10.8%.

Compared with O=[S@]1Oc2ccccc2-c2ccccc21, N/C(=N\S(=O)(=O)c1cccs1)c1ccccc1Cl is higher in “hERG current change (%, negative = inhibition) at 10uM” value: 7.82% for the first, 14.4% for the second.

First: C/C(=N\NC(=S)NCc1ccccc1)c1ccco1
Second: O=C(COC(=O)[C@H](Cc1c[nH]c2ccccc12)NC(=O)c1cccs1)NCc1ccccc1
The “hERG current change (%, negative = inhibition) at 10uM” value of the first is lower: -17.4% for the first, -1.82% for the second.

Compared with Cc1ccc(S(=O)(=O)NCc2csc(-c3cccs3)n2)cc1, CNC(=O)n1cc(C)c(-c2cccs2)n1 is lower in “hERG current change (%, negative = inhibition) at 10uM” value: 5.86% for the first, 5.15% for the second.

Going from Cc1nn(Cc2cccc(C(=O)Nn3cc([N+](=O)[O-])cn3)c2)c(C)c1[N+](=O)[O-] to CC(C)C[C@H](NC(=O)c1nc[nH]c1C(=O)N(C)Cc1ccccc1)C(=O)OCc1ccccc1, the “hERG current change (%, negative = inhibition) at 10uM” value rises from 4.46% to 7.57%.

First: CN1C2C=C3C(C#N)=C(N)C(C#N)(C#N)[C@@H](c4ccc(Cl)cc4)[C@@H]3C1CC2 (some centres unmarked)
Second: O=C(/C=C/c1cccs1)c1cc(Cl)ccc1O
The “hERG current change (%, negative = inhibition) at 10uM” value of the first is lower: -16.6% for the first, 0.301% for the second.

Compared with CC1CC(C)CN(C(=S)Nc2ccc(SC(F)F)cc2)C1 (centres unmarked), C=CCN(Cc1nc(-c2ccc(OC)cc2)no1)C(=O)c1ccc2c(c1)OCO2 is higher in “hERG current change (%, negative = inhibition) at 10uM” value: -51.8% for the first, -14.7% for the second.
